This is an account of results in the RNAGym collection of RNA variant scans (doi:10.1101/gad.245936.114).

This sample is rich in variants without activity.

The chains are these.
B1: tRNA (parent)
chain: CUCUCGGUAGCCAAGUUGGUUUAAGGCGCAAGACUUUAAUUUAUCACUACGAAAUCUUGAGAUCGGGCGUUCGACUCGCCCCCGGGAGAUUUUUUCCUCGAGCAA

The variants in the data set derive from B1. The data set is described as follows: nonsense suppression (GFP-seq) (ratio to wild type); higher = more function; SUP4oc tRNA, yeast GFP reporter sort-seq. Put shortly:
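Nonsense suppression (GFPSEQ) is the median GFP/RFP ratio of each sorting bin, weighted by the variant's estimated share of cells in that bin and expressed relative to the unmutated parent tRNA. Yeast strains carried genome-integrated variants of an ochre-suppressor tRNA from a library with ~3% random mutations, plus a galactose-driven GFP ochre reporter and RFP, and were grown in raffinose/galactose medium containing 80 mg/L adenine. Cells were sorted into GFP/RFP bins, each bin was Illumina-sequenced (phred ≥30), and variants were kept only with ≥100 reads and ≥30 cells.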
Consider U4G G18C U35C G61C C68U U76C G86C, for which the nonsense suppression is at most 0.026.
The value for C5A G10A G15U C34G was at most 0.026.
With U17C G19A G78C, the nonsense suppression is at most 0.026.
With G67C C77A, the nonsense suppression was at most 0.026.
With G6U G15U C77G G78A, the nonsense suppression is at most 0.026.
For the variant G18U C34U A62C G73U, the nonsense suppression is at most 0.026.
A60C G66U: the nonsense suppression was at most 0.026.
On to G10A A31C, for which the nonsense suppression was at most 0.026.
Regarding A30G G78A, the nonsense suppression was 0.101.
Turning to U16A G88C, the nonsense suppression is at most 0.026.
Take C3G U16C G18C A54C: the nonsense suppression was at most 0.026.
In the case of C1U G7C G19U U76A, the nonsense suppression was at most 0.026.
Turning to C56G G69C U76G, the nonsense suppression is at most 0.026.
For the variant C11U G65A, the nonsense suppression is at most 0.026.
The value for U55A G66C G69C was at most 0.026.
For the variant A62G C72U G86U G88A, the nonsense suppression is at most 0.026.
Take A13U G15A U20C: the nonsense suppression is at most 0.026.
In the case of C27A G78U it was 0.0309.
The value for G15U C83G was at most 0.026; that for A14U A62U was at most 0.026.
In the case of G10A U20A G86U it was at most 0.026; in that of A14C A24C C81A, at most 0.026.
G15U C27U G73C: the nonsense suppression is at most 0.026.
The value for C27A A31G U58A was at most 0.026.
The value for U2G U20C C29A was at most 0.026; that for C3G G66C U76C was at most 0.026.
On to C1G C11G, for which the nonsense suppression is at most 0.026.
The value for A31U U63C was at most 0.026.
In the case of G15A A74G it was at most 0.026.
In the case of G6C U8G U16G U76G C80U it was at most 0.026; in that of U16A A33G, 0.0423; in that of U4C C5G G85C, at most 0.026.
In the case of U8A U21C C34G, the nonsense suppression is at most 0.026.
In the case of U8C C82U, the nonsense suppression was at most 0.026.
G18A G19U U22C A60U G66U: the nonsense suppression is at most 0.026.
On to U2A A14C G18U, for which the nonsense suppression is at most 0.026.
The value for G25A A30U U76C was at most 0.026.
In the case of C3A U4A A23C it was at most 0.026; in that of A24G A30C G67C, at most 0.026.
Consider U22G C34A G85A, for which the nonsense suppression is at most 0.026.
For the variant A33C A74G, the nonsense suppression is at most 0.026.
C3G G78A: the nonsense suppression was at most 0.026.
The value for C3G C34U U70C was at most 0.026; that for C29A A62G was at most 0.026; that for C5U A9G C64A was at most 0.026.
In the case of A14C U58G G73C C82A, the nonsense suppression was at most 0.026.
In the case of A54C G78U it was at most 0.026; in that of U22C G73U C80A, at most 0.026.
Consider U8C A60U, for which the nonsense suppression is at most 0.026.
In the case of C3U G25U G85A it was at most 0.026; in that of C3A G7U U35C C56A A87U, at most 0.026; in that of C27A U71A G78U, at most 0.026.
As for G32A C83G, the nonsense suppression was at most 0.026.
The value for G18U C27A was at most 0.026.
The value for G65C G69C C75U was at most 0.026; that for C11G U63A G73C G84A was at most 0.026.
In the case of G28A G69C A87G it was at most 0.026; in that of U2G C3G, at most 0.026; in that of U20G A74U, at most 0.026.
For the variant G6C G19C C34U C75A G88A A89C, the nonsense suppression was at most 0.026.
In the case of U8G A23G G26C it was at most 0.026.
As for U2A U76C G78U, the nonsense suppression was at most 0.026.
In the case of G19C A30G U35C A62C it was at most 0.026.
The value for C29G C34U U57A U63A C83A A87C was at most 0.026.
In the case of U4G G18A G85A it was at most 0.026.
As to U35G G66U, the nonsense suppression was at most 0.026.
In the case of U2C A9C C27G U58A it was at most 0.026; in that of C79U C80A A89G, at most 0.026.
In the case of C5G A62C C64A it was at most 0.026; in that of G15U U70G, at most 0.026; in that of C1A G6A U17A U58C G69U, at most 0.026.
Turning to A14U A31G U55G C56U U58C, the nonsense suppression was at most 0.026.
As to C5U U16G G59U G78C, the nonsense suppression was at most 0.026.
In the case of G28C A54U U76A it was at most 0.026; in that of U4C U55C G78A G86U, at most 0.026.
The value for G18A U21A A30C was at most 0.026.
As for A9G G28A G61A, the nonsense suppression was found to be 1.24.
As to A13G C56G U71G, the nonsense suppression is at most 0.026.
The value for A9U G67A C79G was at most 0.026; that for A31G A33U G86A was at most 0.026.
In the case of C5G A9C G85A it was at most 0.026; in that of A60G G67U C83G, at most 0.026; in that of C12U C29G U35A, at most 0.026.
In the case of U2A A89C it was at most 0.026.
